In the supplement of paper PMC10441789:
The other results are listed elsewhere or left out. Antibody binding of pooled human sera (four to six donors per pool; dilution not stated) to peptides of the Trypanosoma cruzi antigen TSSA on microarrays. Quantile-normalised fluorescence in arbitrary units, mean of duplicate arrays; higher = more binding. No active / inactive call. The uninfected pools are read here as the healthy donors of the same country. The strongest signals lie near the top of the scale (about 60,000).

Tests used:
Test in all cases: antibody binding signal (normalised fluorescence) (arbitrary fluorescence units); higher = stronger serum antibody binding to peptide
[1] = test system: pooled sera of chronic Chagas disease patients, Argentina
Protocol: (§1)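 Microarray of 15-residue peptides over residues 30-55 of Trypanosoma cruzi TSSAII, each with 1 to 10 substitutions at naturally variable positions, probed with one serum pool per country.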

[2] = test system: pooled sera of chronic Chagas disease patients, Bolivia
Protocol: as §1

[3] = test system: pooled sera of chronic Chagas disease patients, Brazil
Protocol: as §1

[4] = test system: pooled sera of chronic Chagas disease patients, Colombia
Protocol: as §1

[5] = test system: pooled sera of chronic Chagas disease patients, Mexico
Protocol: as §1

[6] = test system: pooled sera of chronic Chagas disease patients, USA
Protocol: as §1

[7] = test system: pooled sera of uninfected people, Argentina
Protocol: as §1

[8] = test system: pooled sera of uninfected people, Bolivia
Protocol: as §1

[9] = test system: pooled sera of uninfected people, Brazil
Protocol: as §1

[10] = test system: pooled sera of uninfected people, Mexico
Protocol: as §1

[11] = test system: pooled sera of uninfected people, USA
Protocol: as §1

Row | Sequence | antibody binding signal [1] | antibody binding signal [2] | antibody binding signal [3] | antibody binding signal [4] | antibody binding signal [5] | antibody binding signal [6] | antibody binding signal [7] | antibody binding signal [8] | antibody binding signal [9] | antibody binding signal [10] | antibody binding signal [11]
1 | DKKTATGEAPSPPGA | 9250 | 9510 | 11300 | 174 | 521 | 18500 | 155 | 98.2 | 149 | 290 | 145
2 | PPSGTEKKTATGETP | 20900 | 10900 | 15000 | 462 | 827 | 6680 | 867 | 292 | 314 | 143 | 212
3 | TPPSGKDKKAAAGET | 3470 | 569 | 709 | 451 | 39700 | 1170 | 185 | 538 | 103 | 145 | 96.2
4 | KTATGGAPSPSGASS | 671 | 260 | 405 | 497 | 2120 | 328 | 414 | 156 | 148 | 132 | 228
5 | PSGTEKKPATGETPS | 36100 | 27900 | 31400 | 1800 | 2170 | 22800 | 737 | 600 | 1010 | 1990 | 463
6 | KEKKAATGEAPSQPG | 11000 | 4230 | 33300 | 165 | 234 | 17200 | 337 | 81.4 | 119 | 77 | 114
7 | GTEKKPAAGETPSQS | 1480 | 411 | 4830 | 827 | 1070 | 1660 | 90 | 876 | 1940 | 439 | 1060
8 | GKENKPAAGGTPSQP | 2680 | 624 | 9810 | 5290 | 6650 | 10100 | 691 | 229 | 358 | 245 | 104
9 | NKTAAGEAPSPPGAS | 372 | 1070 | 8140 | 359 | 357 | 5160 | 482 | 1020 | 531 | 194 | 1200
10 | KEKKPAAGEAPSQPG | 3350 | 2000 | 31900 | 157 | 179 | 11200 | 95.8 | 80.8 | 88.1 | 73.6 | 359
11 | PSGKDKKAATGGTPS | 2460 | 332 | 1950 | 4440 | 4050 | 3640 | 153 | 139 | 139 | 71.3 | 89.4
12 | SGTDNKTAAGGTPSP | 2280 | 521 | 43600 | 6340 | 355 | 1480 | 164 | 741 | 2180 | 1610 | 265
13 | TEKKAATGETPSPPG | 1710 | 2080 | 13200 | 300 | 366 | 9740 | 427 | 228 | 247 | 222 | 1910
